Nine compounds from article PMC12441861, “Next-Generation Lipid Prodrugs Orally Deliver Tenofovir via Enhanced Chylomicron Incorporation” (ACS Pharmacology & Translational Science, 2025) can be followed below.

Test [1] has as its system HIV-1 pseudovirus expressing Env proteins from the Z1800 M transmitted/founder clone E4.02. Description: HIV-1 pseudovirus infectivity (luciferase) assay in TZM-bl cells. Particulars: for Fold Change (IC50 relative to TXL): compound IC50 / TXL IC50 of the corresponding experiment.
The test system is the same in test [2].
[3] abbreviates: TZM-bl, read-out: Antiviral Activity IC50, TZM-bl cells, experiment of 8a–d with TXL (reference TXL 0.001 μM).
Setting [4] is: TZM-bl, read-out: Antiviral Activity IC50, TZM-bl cells, experiment of 15a–b and 21a–b with TXL (reference TXL 0.20 μM).

Read-outs that look alike come from different tables or passages of the source.

`CCCCCCCCCCCCCCCCOC[C@@H](COP(=O)(O)CO[C@H](C)Cn1cnc2c(N)ncnc21)OCc1ccccc1` [8a, Ammonium[(1R)-2-(6-aminopurin-9-yl)-1-methyl-ethoxy]methyl-[(2S)-2-benzyloxy-3-hexadecoxy-propoxy]phosphinate]: the IC50 in test [1] (setting [3]) came out at 1 nM. Also, in test [1], the “Fold Change (IC50 relative to TXL)” value was 1.

For `CCCCCCCCCCCCCCCCCCOC[C@@H](COP(=O)(O)CO[C@H](C)Cn1cnc2c(N)ncnc21)OCc1ccccc1` [8b, Ammonium[(1R)-2-(6-aminopurin-9-yl)-1-methyl-ethoxy]methyl-[(2S)-2-benzyloxy-3-octadecoxy-propoxy]phosphinate], in test [1] (setting [3]), the half-maximal inhibitory concentration (IC50) amounted to 1 nM. Besides, in test [1], the “Fold Change (IC50 relative to TXL)” value is 1.

As for `CCCCCCCCCCCCCCCCOC[C@H](COP(=O)(O)CO[C@H](C)Cn1cnc2c(N)ncnc21)OCc1ccccc1` [8c, Ammonium[(1R)-2-(6-aminopurin-9-yl)-1-methyl-ethoxy]methyl-[(2R)-2-benzyloxy-3-hexadecoxy-propoxy]phosphinate], the IC50 in test [1] (setting [3]) came to 2 nM. Besides, in test [1], the “Fold Change (IC50 relative to TXL)” value amounted to 2.

On to `CCCCCCCCCCCCCCCCCCOC[C@H](COP(=O)(O)CO[C@H](C)Cn1cnc2c(N)ncnc21)OCc1ccccc1` [8d, Ammonium[(1R)-2-(6-aminopurin-9-yl)-1-methyl-ethoxy]methyl-[(2R)-2-benzyloxy-3-octadecoxy-propoxy]phosphinate], for which the half-inhibitory concentration (IC50) in test [1] (setting [3]) came to 2 nM. Moreover, in test [1], the “Fold Change (IC50 relative to TXL)” value is 2.

Turning to `C[C@H](Cn1cnc2c(N)ncnc21)OCP(=O)(O)OCCCOCCCCCCCCCCCCCCCC(F)(F)F` [15a, Ammonium[(1R)-2-(6-aminopurin-9-yl)-1-methyl-ethoxy]methyl-[3-(16,16,16-trifluorohexadecoxy)propoxy]phosphinate], the IC50 in test [1] (setting [4]) was found to be 1600 nM.

In the case of `C[C@H](Cn1cnc2c(N)ncnc21)OCP(=O)(O)OCCCOCCCCCCCCCCCCCCCCCC(F)(F)F` [15b, Ammonium[(1R)-2-(6-aminopurin-9-yl)-1-methyl-ethoxy]methyl-[3-(18,18,18-trifluorooctadecoxy)propoxy]phosphinate], the half-inhibitory concentration (IC50) in test [1] (setting [4]) was 600 nM; in test [1] (read-out: Antiviral Activity IC50, TZM-bl cells, experiment of 15a–b and 21a–b with TXL (reference TXL 0.20 μM)) it was 610 nM. Besides, in test [1], the “Fold Change (IC50 relative to TXL)” value is 3.

In the case of `C[C@H](Cn1cnc2c(N)ncnc21)OCP(=O)(O)OC[C@H](COCCCCCCCCCCCCCCCC(F)(F)F)OCc1ccccc1` [21a, Ammonium[(1R)-2-(6-Aminopurin-9-yl)-1-methyl-ethoxy]methyl-[(2S)-2-benzyloxy-3-(16,16,16-trifluorohexadecoxy)propoxy]phosphinate], the 50% inhibitory concentration (IC50) in test [1] (setting [4]) worked out at 40 nM. In test [1], the “Fold Change (IC50 relative to TXL)” value is reported as 0.2. The “fold more potent than TXL” value in test [2] was 5 fold.

Take `C[C@H](Cn1cnc2c(N)ncnc21)OCP(=O)(O)OC[C@H](COCCCCCCCCCCCCCCCCCC(F)(F)F)OCc1ccccc1` [21b, Ammonium[(1R)-2-(6-aminopurin-9-yl)-1-methyl-ethoxy]methyl-[(2S)-2-benzyloxy-3-(18,18,18-trifluorooctadecoxy)propoxy]phosphinate]: in test [1] (setting [4]), the IC50 worked out at 70 nM. Besides, the “Fold Change (IC50 relative to TXL)” value in test [1] is recorded as 0.4. In addition, in test [2], the “fold more potent than TXL” value amounted to 3 fold.

As to `CCCCCCCCCCCCCCCCOCCCOP(=O)(O)CO[C@H](C)Cn1cnc2c(N)ncnc21` [TXL, hexadecyloxypropyl (HDP)-TFV, reference compound], the IC50 stood at 1 nM in test [1] (setting [3]) and 200 nM in test [1] (setting [4]). The “Fold Change (IC50 relative to TXL)” value in test [1] turned out to be 1.

One may read the IC50 as the midpoint of a concentration-inhibition curve.
